Our source for the displacement values is PubChem BioAssay AID1240 (Sanford-Burnham Center for Chemical Genomics, 2008).

The structures appear in SMILES notation. Screen size: about 50,000 compounds; about 800 (1.6%) showed an effect of 50% or more. The list shows a part of the results.

In this assay the target is Bcl-2-like protein 10 (Homo sapiens) (UniProt Q9HD36). Put plainly: Phenotype converters, Bcl-B/TR3 peptide binding displacement, primary biochemical FP (AID 1240).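 Also: 0% = Bcl-B with tracer peptide and DMSO and 100% = tracer peptide lacking Bcl-B.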 To be noted: GST-Bcl-B / FITC-TR3 peptide fluorescence polarization; stronger effect = higher value; compound at 3.75 mg/L. A general note: Polarisation of emitted light reports the rotation of a fluorescent probe.
UniProt Q9HD36, sequence (Q9HD36 whole entry, looked up): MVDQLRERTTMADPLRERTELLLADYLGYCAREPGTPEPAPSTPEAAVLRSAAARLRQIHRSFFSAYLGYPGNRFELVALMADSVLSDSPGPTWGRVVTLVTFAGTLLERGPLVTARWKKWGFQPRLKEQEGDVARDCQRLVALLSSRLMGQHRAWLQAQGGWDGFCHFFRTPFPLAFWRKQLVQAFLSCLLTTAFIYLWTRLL
On to `Cc1nc2ccccc2c(=O)n1-c1ccccc1O`, for which the displacement is -0.7%. For `O=c1c2ccccc2nc(/C=C/c2ccccc2[N+](=O)[O-])n1-c1cccc(O)c1`, the displacement is -4%. `O/N=C1/C(=C/c2ccccc2)N2CCC1CC2`: the displacement stood at 10.6%. Regarding `O=c1c2ccccc2nc(-c2ccccc2)n1-c1ccccc1Br`, the displacement was -9.3%. Regarding `CCC(CC)N1CCN(Cc2cc(Br)ccc2OC)CC1`, the displacement was -7.5%.

On to `COc1ccccc1-n1c(/C=C/c2ccco2)nc2ccccc2c1=O`, for which the displacement was -36%. Then `COc1ccc(N2C(=O)NC(=O)/C(=C/c3cn(CC(=O)Nc4ccccc4)c4ccccc34)C2=O)cc1`, with 88.8%. For the compound `CCC(C)N1CCN(Cc2cc(OC)c(OC)c(OC)c2)CC1` (stereo not drawn), the displacement was -11.3%.

`Cc1ccc(N2C(=O)NC(=O)/C(=C\c3ccc(-c4ccc(Cl)c(C(=O)O)c4)o3)C2=O)cc1`: the displacement is 6.3%. For the compound `Cc1cccc(CN2CCN(C(=O)COc3ccc(Cl)cc3)CC2)c1`, the displacement was -4.6%.

With `CCN(CC)CCNC(=O)CN1CCCC1=O`, the displacement was 2%. For `Cc1ccccc1N1C(=O)NC(=O)/C(=C\c2cc(C)n(C)c2C)C1=O`, the displacement is 12.6%. For the compound `Cc1ccccc1C=C1C(=O)NC(=S)NC1=O`, the displacement was found to be 12.8%.

As to `CCOC(=O)CCOCC#CCN(CC)CC`, the displacement was found to be 1.2%. As for `C=CCn1c(C)c(C=C2C(=O)NC(=S)NC2=O)c2ccccc21`, the displacement came out at 29%. In the case of `CCOc1ccc2ccccc2c1/C=C1\C(=O)NC(=S)N(c2ccccc2)C1=O`, the displacement was 20.2%. Turning to `O=[N+]([O-])c1ccc(NCC(O)c2ccccc2)c2ncccc12` (stereo not drawn), the displacement was found to be 14.7%.

Consider `CC(=O)C(C)Oc1cc(C)cc2oc(=O)c3c(c12)CCCC3` (stereo not drawn), for which the displacement is -3.2%. For `O/N=C1\C2CCN(CC2)C1Cc1ccccc1O` (stereo not drawn), the displacement is -11.6%.

Take `O=c1c2ccccc2nc(/C=C/c2ccccc2[N+](=O)[O-])n1-c1ccccc1O`: the displacement worked out at 5.6%.

Regarding `O=c1c2ccccc2nc(-c2ccc(Cl)cc2Cl)n1-c1nccs1`, the displacement is -19.5%. For `O=C(CN1CCCC1=O)NCc1ccccc1`, the displacement came out at 7.5%.

Take `O=C(COc1ccc(Cl)cc1)N1CCN(Cc2cccc3ccccc23)CC1`: the displacement came out at 12.7%.
